To fix the notation:
B1: GPR68, Q15743 (parent)
chain: MGNITADNSSMSCTIDHTIHQTLAPVVYVTVLVVGFPANCLSLYFGYLQIKARNELGVYLCNLTVADLFYICSLPFWLQYVLQHDNWSHGDLSCQVCGILLYENIYISVGFLCCISVDRYLAVAHPFRFHQFRTLKAAVGVSVVIWAKELLTSIYFLMHEEVIEDENQHRVCFEHYPIQAWQRAINYYRFLVGFLFPICLLLASYQGILRAVRRSHGTQKSRKDQIQRLVLSTVVIFLACFLPYHVLLLVRSVWEASCDFAKGVFNAYHFSLLLTSFNCVADPVLYCFVSETTHRDLARLRGACLAFLTCSRTGRAREAYPLGAPEASGKSGAQGEEPELLTKLHPAFQTPNSPGSGGFPTGRLA

Data set [1] covers variants of B1. Put plainly: cAMP reporter score (Enrich2 score, wild type = 0); higher = more signal; HEK293T, FACS bins.
The variants in data set [2] derive from B1. Description: surface expression score (Enrich2 score, wild type = 0); higher = more signal; HEK293T, FACS bins.

Scores with a large standard error are left out. Two further conditions of the source, in which the scores hardly spread, are not listed. Read del as a deletion of the residues named and ins as an insertion between two positions. For some assays here: How much ogerin was present is not stated here.

For MGNITADNSSMSCTIDHTIHQTLAPVVYVTVLVVGFPANCLSLYFGYLQIKARNELGVYLCNLTVADLFYICSLPFWLQYVLQHDNWSHGDLSCQVCGILLYENIYKSVGFLCCISVDRYLAVAHPFRFHQFRTLKAAVGVSVVIWAKELLTSIYFLMHEEVIEDENQHRVCFEHYPIQAWQRAINYYRFLVGFLFPICLLLASYQGILRAVRRSHGTQKSRKDQIQRLVLSTVVIFLACFLPYHVLLLVRSVWEASCDFAKGVFNAYHFSLLLTSFNCVADPVLYCFVSETTHRDLARLRGACLAFLTCSRTGRAREAYPLGAPEASGKSGAQGEEPELLTKLHPAFQTPNSPGSGGFPTGRLA [I107K], the cAMP reporter score in data set [1] (pH 5.5) is 0.565; in data set [1] (pH 6, modulator: ogerin), -1.28; in data set [1] (pH 6.5, modulator: ogerin), -1.35.
With MGNITADNSSMSCTIDHTIHQTLAPVVYVTVLVVGFPANCLSLYFGYLQIKARNELGVYLCNLTVADLFYICSLPFWLQYVLQHDNWSHGDLSCQVCGILLYENIYHSVGFLCCISVDRYLAVAHPFRFHQFRTLKAAVGVSVVIWAKELLTSIYFLMHEEVIEDENQHRVCFEHYPIQAWQRAINYYRFLVGFLFPICLLLASYQGILRAVRRSHGTQKSRKDQIQRLVLSTVVIFLACFLPYHVLLLVRSVWEASCDFAKGVFNAYHFSLLLTSFNCVADPVLYCFVSETTHRDLARLRGACLAFLTCSRTGRAREAYPLGAPEASGKSGAQGEEPELLTKLHPAFQTPNSPGSGGFPTGRLA [I107H], the cAMP reporter score in data set [1] (pH 5.5) is -0.482; in data set [1] (pH 6), 0.072; in data set [1] (pH 6.5, modulator: ogerin) it was -0.431. The surface expression score in data set [2] is -0.385.
In the case of MGNITADNSSMSCTIDHTIHQTLAPVVYVTVLVVGFPANCLSLYFGYLQIKARNELGVYLCNLTVADLFYICSLPFWLQYVLQHDNWSHGDLSCQVCGILLYENIYLSVGFLCCISVDRYLAVAHPFRFHQFRTLKAAVGVSVVIWAKELLTSIYFLMHEEVIEDENQHRVCFEHYPIQAWQRAINYYRFLVGFLFPICLLLASYQGILRAVRRSHGTQKSRKDQIQRLVLSTVVIFLACFLPYHVLLLVRSVWEASCDFAKGVFNAYHFSLLLTSFNCVADPVLYCFVSETTHRDLARLRGACLAFLTCSRTGRAREAYPLGAPEASGKSGAQGEEPELLTKLHPAFQTPNSPGSGGFPTGRLA [I107L], the cAMP reporter score is -0.604 in data set [1] (pH 5.5); -1.65 in data set [1] (pH 6); -1.26 in data set [1] (pH 6, modulator: ogerin); -1.49 in data set [1] (pH 6.5, modulator: ogerin). The surface expression score in data set [2] is -0.859.
MGNITADNSSMSCTIDHTIHQTLAPVVYVTVLVVGFPANCLSLYFGYLQIKARNELGVYLCNLTVADLFYICSLPFWLQYVLQHDNWSHGDLSCQVCGILLYENIYMSVGFLCCISVDRYLAVAHPFRFHQFRTLKAAVGVSVVIWAKELLTSIYFLMHEEVIEDENQHRVCFEHYPIQAWQRAINYYRFLVGFLFPICLLLASYQGILRAVRRSHGTQKSRKDQIQRLVLSTVVIFLACFLPYHVLLLVRSVWEASCDFAKGVFNAYHFSLLLTSFNCVADPVLYCFVSETTHRDLARLRGACLAFLTCSRTGRAREAYPLGAPEASGKSGAQGEEPELLTKLHPAFQTPNSPGSGGFPTGRLA [I107M]: the cAMP reporter score is -0.547 in data set [1] (pH 5.5); -0.898 in data set [1] (pH 6); -1.6 in data set [1] (pH 6, modulator: ogerin); -1.08 in data set [1] (pH 6.5, modulator: ogerin). For the same variant, the surface expression score in data set [2] is -0.444.

These data come from the GPR68 mutational scans of Howard et al. (2025).
